Publication PMC9911399, “Two distinct binding modes provide the RNA-binding protein RbFox with extraordinary sequence specificity”
Substitutions are numbered along the chain they refer to; changes in the protein carry UniProt numbers. This is one part of the list.

T1: RBFOX1 RRM RbFoxmut (Fox-RRM*) (Homo sapiens, UniProt Q9NWB1 109-208, R118D;E147R;N151S;E152T)
T1 sequence: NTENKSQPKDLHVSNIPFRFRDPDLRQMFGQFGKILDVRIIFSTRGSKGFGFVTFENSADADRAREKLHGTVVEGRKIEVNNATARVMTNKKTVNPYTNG

B1: UUCUUCC (DNA:RNA)
RNA: GGGAGACCGGAAUUCAGAUUGUCCUUCUUCCUUAAAUCCCGUCGUAGCCACCA
DNA 1: CAATCTGAATTCCGGTCTCCC
DNA 2: TGGTGGCTACGACGGGATT
B2: GCCUGCU (DNA:RNA)
RNA: B1 RNA with U25G, U26C, U29G, C31U
DNA 1: CAATCTGAATTCCGGTCTCCC
DNA 2: TGGTGGCTACGACGGGATT
B3: UUCGACC (DNA:RNA)
RNA: B1 RNA with U28G, U29A
DNA 1: CAATCTGAATTCCGGTCTCCC
DNA 2: TGGTGGCTACGACGGGATT
B4: AAGAUCC (DNA:RNA)
RNA: B1 RNA with U25A, U26A, C27G, U28A
DNA 1: CAATCTGAATTCCGGTCTCCC
DNA 2: TGGTGGCTACGACGGGATT
B5: GUACGAG (DNA:RNA)
RNA: B1 RNA with U25G, C27A, U28C, U29G, C30A, C31G
DNA 1: CAATCTGAATTCCGGTCTCCC
DNA 2: TGGTGGCTACGACGGGATT
B6: UAUCCCU (DNA:RNA)
RNA: B1 RNA with U26A, C27U, U28C, U29C, C31U
DNA 1: CAATCTGAATTCCGGTCTCCC
DNA 2: TGGTGGCTACGACGGGATT
B7: UUGCUAC (DNA:RNA)
RNA: B1 RNA with C27G, U28C, C30A
DNA 1: CAATCTGAATTCCGGTCTCCC
DNA 2: TGGTGGCTACGACGGGATT
B8: UCGGGCA (DNA:RNA)
RNA: B1 RNA with U26C, C27G, U28G, U29G, C31A
DNA 1: CAATCTGAATTCCGGTCTCCC
DNA 2: TGGTGGCTACGACGGGATT
B9: CGCCGAA (DNA:RNA)
RNA: B1 RNA with U25C, U26G, U28C, U29G, C30A, C31A
DNA 1: CAATCTGAATTCCGGTCTCCC
DNA 2: TGGTGGCTACGACGGGATT
B10: GUUCGUA (DNA:RNA)
RNA: B1 RNA with U25G, C27U, U28C, U29G, C30U, C31A
DNA 1: CAATCTGAATTCCGGTCTCCC
DNA 2: TGGTGGCTACGACGGGATT
B11: AUAUAGG (DNA:RNA)
RNA: B1 RNA with U25A, C27A, U29A, C30G, C31G
DNA 1: CAATCTGAATTCCGGTCTCCC
DNA 2: TGGTGGCTACGACGGGATT
B12: UUGGUUG (DNA:RNA)
RNA: B1 RNA with C27G, U28G, C30U, C31G
DNA 1: CAATCTGAATTCCGGTCTCCC
DNA 2: TGGTGGCTACGACGGGATT
B13: CGGAUUU (DNA:RNA)
RNA: B1 RNA with U25C, U26G, C27G, U28A, C30U, C31U
DNA 1: CAATCTGAATTCCGGTCTCCC
DNA 2: TGGTGGCTACGACGGGATT
B14: CUACUAA (DNA:RNA)
RNA: B1 RNA with U25C, C27A, U28C, C30A, C31A
DNA 1: CAATCTGAATTCCGGTCTCCC
DNA 2: TGGTGGCTACGACGGGATT
B15: ACCAAUA (DNA:RNA)
RNA: B1 RNA with U25A, U26C, U28A, U29A, C30U, C31A
DNA 1: CAATCTGAATTCCGGTCTCCC
DNA 2: TGGTGGCTACGACGGGATT
B16: GCUUAUU (DNA:RNA)
RNA: B1 RNA with U25G, U26C, C27U, U29A, C30U, C31U
DNA 1: CAATCTGAATTCCGGTCTCCC
DNA 2: TGGTGGCTACGACGGGATT
B17: GUUAGAC (DNA:RNA)
RNA: B1 RNA with U25G, C27U, U28A, U29G, C30A
DNA 1: CAATCTGAATTCCGGTCTCCC
DNA 2: TGGTGGCTACGACGGGATT
B18: ACUGUUC (DNA:RNA)
RNA: B1 RNA with U25A, U26C, C27U, U28G, C30U
DNA 1: CAATCTGAATTCCGGTCTCCC
DNA 2: TGGTGGCTACGACGGGATT
B19: CGAAGCG (DNA:RNA)
RNA: B1 RNA with U25C, U26G, C27A, U28A, U29G, C31G
DNA 1: CAATCTGAATTCCGGTCTCCC
DNA 2: TGGTGGCTACGACGGGATT
B20: CACCCGU (DNA:RNA)
RNA: B1 RNA with U25C, U26A, U28C, U29C, C30G, C31U
DNA 1: CAATCTGAATTCCGGTCTCCC
DNA 2: TGGTGGCTACGACGGGATT
B21: CCGACGG (DNA:RNA)
RNA: GGGAGACCGGAAUUCAGAUUGUCCCCGACGGUUAAAUCCCGUCGUAGCCACCA
DNA 1: CAATCTGAATTCCGGTCTCCC
DNA 2: TGGTGGCTACGACGGGATT
B22: ACUGCAA (DNA:RNA)
RNA: B21 RNA with C25A, G27U, A28G, G30A, G31A
DNA 1: CAATCTGAATTCCGGTCTCCC
DNA 2: TGGTGGCTACGACGGGATT
B23: AUCGCAG (DNA:RNA)
RNA: B21 RNA with C25A, C26U, G27C, A28G, G30A
DNA 1: CAATCTGAATTCCGGTCTCCC
DNA 2: TGGTGGCTACGACGGGATT
B24: AGAAUUU (DNA:RNA)
RNA: B21 RNA with C25A, C26G, G27A, C29U, G30U, G31U
DNA 1: CAATCTGAATTCCGGTCTCCC
DNA 2: TGGTGGCTACGACGGGATT
B25: GCUCCGU (DNA:RNA)
RNA: B21 RNA with C25G, G27U, A28C, G31U
DNA 1: CAATCTGAATTCCGGTCTCCC
DNA 2: TGGTGGCTACGACGGGATT
B26: UGUGGCU (DNA:RNA)
RNA: B1 RNA with U26G, C27U, U28G, U29G, C31U
DNA 1: CAATCTGAATTCCGGTCTCCC
DNA 2: TGGTGGCTACGACGGGATT
B27: CGUGUAC (DNA:RNA)
RNA: B1 RNA with U25C, U26G, C27U, U28G, C30A
DNA 1: CAATCTGAATTCCGGTCTCCC
DNA 2: TGGTGGCTACGACGGGATT
B28: AUCUUUU (DNA:RNA)
RNA: B1 RNA with U25A, C30U, C31U
DNA 1: CAATCTGAATTCCGGTCTCCC
DNA 2: TGGTGGCTACGACGGGATT
B29: UAGGGUA (DNA:RNA)
RNA: B21 RNA with C25U, C26A, A28G, C29G, G30U, G31A
DNA 1: CAATCTGAATTCCGGTCTCCC
DNA 2: TGGTGGCTACGACGGGATT
B30: GGAAACU (DNA:RNA)
RNA: B21 RNA with C25G, C26G, G27A, C29A, G30C, G31U
DNA 1: CAATCTGAATTCCGGTCTCCC
DNA 2: TGGTGGCTACGACGGGATT
B31: UGAUUAC (DNA:RNA)
RNA: B1 RNA with U26G, C27A, C30A
DNA 1: CAATCTGAATTCCGGTCTCCC
DNA 2: TGGTGGCTACGACGGGATT

Target: T1, RBFOX1 RRM RbFoxmut (Fox-RRM*)
Test: EMSA; HiTS-Eq, 1 nM pool, 10 min; buffer printed only for the single-RNA assays: 10 mM Tris pH 7.5, 150 mM NaCl, 3.4 mM EDTA, 0.001% NP-40, 30 C
Settings: tags: His6 N-terminal (pET28a); label: 5' 32P
Summary of the method: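 A pool of RNA with 7 randomized nucleotides, 5′-radiolabelled and with DNA-annealed flanks, was equilibrated at 1 nM for 10 min in 50 µL with purified RbFox RRM, wild type or mutant, across increasing protein concentrations. Free RNA was separated by 8% native PAGE, excised, reverse-transcribed, barcoded by PCR and sequenced. Relative association constants were obtained from read-count changes of each RNA species versus the control reaction and normalised to the cognate motif.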

With B1 as the binder, how does the binding signal read?
Its binding signal is 0.0504 KA relative to UGCAUGU.

With B2 as the binder, how does the binding signal read?
Its binding signal is 0.127 KA relative to UGCAUGU.

With B3 as the binder, how does the binding signal read?
Its binding signal is 0.059 KA relative to UGCAUGU.

Which binding signal does the source give for B4 here?
Its binding signal is 0.0854 KA relative to UGCAUGU.

With B5 as the binder, how does the binding signal read?
The binding signal was 0.161 KA relative to UGCAUGU.

With B6 as the binder, how does the binding signal read?
The binding signal was 0.0891 KA relative to UGCAUGU.

How did the binding signal turn out when B7 was run?
The binding signal was 0.124 KA relative to UGCAUGU.

Which binding signal does the source give for B8 here?
Its binding signal is 0.0689 KA relative to UGCAUGU.

For B9, which binding signal is on record?
Its binding signal is 0.0999 KA relative to UGCAUGU.

B10 was tested. Which binding signal did it give?
The binding signal was 0.155 KA relative to UGCAUGU.

Which binding signal does the source give for B11 here?
Its binding signal is 0.115 KA relative to UGCAUGU.

How did the binding signal turn out when B12 was run?
Its binding signal is 0.65 KA relative to UGCAUGU.

For B13, which binding signal is on record?
Its binding signal is 0.0743 KA relative to UGCAUGU.

B14 was tested. Which binding signal did it give?
The binding signal was 0.109 KA relative to UGCAUGU.

B15 was tested. Which binding signal did it give?
Its binding signal is 0.0825 KA relative to UGCAUGU.

How did the binding signal turn out when B16 was run?
The binding signal was 0.108 KA relative to UGCAUGU.

Which binding signal does the source give for B17 here?
The binding signal was 0.0786 KA relative to UGCAUGU.

Which binding signal does the source give for B18 here?
The binding signal was 0.0822 KA relative to UGCAUGU.

How did the binding signal turn out when B19 was run?
The binding signal was 0.108 KA relative to UGCAUGU.

For B20, which binding signal is on record?
The binding signal was 0.1 KA relative to UGCAUGU.

For B21, which binding signal is on record?
The binding signal was 0.0705 KA relative to UGCAUGU.

B22 was tested. Which binding signal did it give?
The binding signal was 0.0722 KA relative to UGCAUGU.

How did the binding signal turn out when B23 was run?
The binding signal was 0.124 KA relative to UGCAUGU.

For B24, which binding signal is on record?
Its binding signal is 0.0901 KA relative to UGCAUGU.

How did the binding signal turn out when B25 was run?
The binding signal was 0.0921 KA relative to UGCAUGU.

With B26 as the binder, how does the binding signal read?
Its binding signal is 0.129 KA relative to UGCAUGU.

B27 was tested. Which binding signal did it give?
Its binding signal is 0.113 KA relative to UGCAUGU.

With B28 as the binder, how does the binding signal read?
Its binding signal is 0.0898 KA relative to UGCAUGU.

Which binding signal does the source give for B29 here?
The binding signal was 0.138 KA relative to UGCAUGU.

For B30, which binding signal is on record?
The binding signal was 0.0532 KA relative to UGCAUGU.

With B31 as the binder, how does the binding signal read?
Its binding signal is 0.0902 KA relative to UGCAUGU.
